According to a collection of fitness landscapes (doi:10.1016/j.celrep.2020.107928):
Whole data set: some 81,000 sequences, median “one-hybrid fitness for binding NBS DNA” near -0.1, cut for the highest 2% near 0.36. The list shows a part of the results.

B1: Caulobacter ParB omega fusion; a variant is named by its letters at X, in order, B8GW30 (parent)
chain: MESVVVGEPGMSEGRRGLGRGLSALLGEVDAAPAQAPGEQLGGSREAPIEILQRNPDQPRRTFREEDLEDLSNSIREKGVLQPILVRPSPDTAGEYQIVAGERAWRAAQRAGLKTVPIMVRELDDLAVLEIGIIENVQRADLNVLEEALSYKVLMEKFERTQENIAQTIGKSXSHVANXMRLLXLPDEVQSYLVSGELTAXHARAIAAAADPVALAKQIIEGGLSVRETEALARKAPNLSAGKSKGGRPPRVKDTDTQALESDLSSVLGLDVSIDHRGSTGTLTITYATLEQLDDLCNRLTRGI

Variants of: B1
Experiment: one-hybrid fitness for binding NBS DNA (the Noc-binding site; scaled: cognate 1, non-cognate 0); higher = stronger binding
Conditions: with NBS DNA site
Summary of the method: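 In E. coli USO, a HIS3 reporter with its site placed 19 bp from the promoter was used to select Caulobacter ParB variants randomised at four specificity codons. Growth lasted 48 hours at 37°C on histidine-free M9 containing 0.1 mM IPTG and 5 mM 3-AT. Fitness was taken as the log change in variant-to-wild-type read ratio from Illumina sequencing of pre- and post-selection plasmids, rescaled between the non-cognate and cognate sites.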

Variant	one-hybrid fitness for binding NBS DNA
PPPC	≤ 0.2
TPLM	≤ 0.2
SDRR	≤ 0.2
HRHL	≤ 0.2
DQAT	≤ 0.2
TGKV	≤ 0.2
TYGN	≤ 0.2
CITC	≤ 0.2
RMGK	≤ 0.2
CEPR	≤ 0.2
SCMM	≤ 0.2
RAMY	≤ 0.2
EINS	≤ 0.2
WGKV	≤ 0.2
KQES	≤ 0.2
MADI	≤ 0.2
RHQL	≤ 0.2
YRTE	≤ 0.2
QCIE	≤ 0.2
QIYI	≤ 0.2
TVHP	≤ 0.2
LQVD	≤ 0.2
GDRW	≤ 0.2
NATG	≤ 0.2
WPVQ	≤ 0.2

Variant	one-hybrid fitness for binding NBS DNA
LLRI	≤ 0.2
TCPA	≤ 0.2
CIPC	≤ 0.2
ILSC	≤ 0.2
GYTL	≤ 0.2
GHHC	≤ 0.2
RIYE	≤ 0.2
RGTP	≤ 0.2
GMVE	≤ 0.2
ARAL	≤ 0.2
MESM	≤ 0.2
WQKS	≤ 0.2
IHLG	≤ 0.2
ETRY	≤ 0.2
YVMS	≤ 0.2
NCNA	≤ 0.2
RIKG	≤ 0.2
QVYP	≤ 0.2
DLPI	≤ 0.2
VGQT	≤ 0.2
HHNS	≤ 0.2
VTRY	≤ 0.2
HPPM	≤ 0.2
SPNR	≤ 0.2
RENA	≤ 0.2

Variant	one-hybrid fitness for binding NBS DNA
TEGT	≤ 0.2
QACI	≤ 0.2
SNPT	≤ 0.2
FIGG	≤ 0.2
SSIV	≤ 0.2
AEWR	≤ 0.2
SNMW	≤ 0.2
YKYC	≤ 0.2
PVQE	≤ 0.2
RKSW	≤ 0.2
PLIP	≤ 0.2
RWCI	≤ 0.2
CCRS	≤ 0.2
RQMK	≤ 0.2
MSFS	≤ 0.2
ECVG	≤ 0.2
GEHG	≤ 0.2
LEHE	≤ 0.2
RPTP	≤ 0.2
YKMG	≤ 0.2
PIRS	≤ 0.2
HCSR	≤ 0.2
TLRM	≤ 0.2
RLEN	≤ 0.2
SPLV	≤ 0.2

Variant	one-hybrid fitness for binding NBS DNA
PATV	≤ 0.2
MGKT	≤ 0.2
DSSC	≤ 0.2
WLYT	≤ 0.2
EWEG	≤ 0.2
REAC	≤ 0.2
PQQL	≤ 0.2
PWNV	≤ 0.2
ECRT	≤ 0.2
PIHC	≤ 0.2
EHPG	≤ 0.2
FAQS	≤ 0.2
QVCH	≤ 0.2
INHC	≤ 0.2
SMRL	≤ 0.2
GVRT	≤ 0.2
MSNI	≤ 0.2
HSES	≤ 0.2
DPHM	≤ 0.2
HALC	≤ 0.2
YTNS	≤ 0.2
PTMS	≤ 0.2
RKDD	≤ 0.2
KHER	≤ 0.2
LNDF	≤ 0.2

Variant	one-hybrid fitness for binding NBS DNA
MFAS	≤ 0.2
RYRS	0.572
PAFS	≤ 0.2
KMSC	≤ 0.2
STTF	≤ 0.2
LTEG	≤ 0.2
LWGY	≤ 0.2
ADGT	≤ 0.2
QLCP	≤ 0.2
PTAK	≤ 0.2
WSWF	≤ 0.2
THES	≤ 0.2
SEKV	≤ 0.2
YNAR	≤ 0.2
NSTL	≤ 0.2
QQTL	≤ 0.2
CHMY	≤ 0.2
SNEL	≤ 0.2
YQFG	≤ 0.2
HRTH	≤ 0.2
RCNP	≤ 0.2
ILHN	≤ 0.2
LADW	≤ 0.2
DKTT	≤ 0.2
CHVW	≤ 0.2

Variant	one-hybrid fitness for binding NBS DNA
AIVY	≤ 0.2
TGLP	≤ 0.2
MYMS	≤ 0.2
IKAT	≤ 0.2
YIRF	≤ 0.2
KYAS	≤ 0.2
QMCC	≤ 0.2
ITSQ	≤ 0.2
NINW	≤ 0.2
GSWA	≤ 0.2
YHHM	≤ 0.2
PIRE	≤ 0.2
GDTY	≤ 0.2
WTPC	≤ 0.2
CRVI	≤ 0.2
ATDN	≤ 0.2
QENY	≤ 0.2
HMAM	≤ 0.2
TGTP	≤ 0.2
LKVG	≤ 0.2
RIDR	≤ 0.2
DLFT	≤ 0.2
SPKM	≤ 0.2
TLQN	≤ 0.2
AAAA	≤ 0.2

Variant	one-hybrid fitness for binding NBS DNA
ARYR	≤ 0.2
TFDR	≤ 0.2
WKWG	≤ 0.2
TQVE	≤ 0.2
WGAG	≤ 0.2
MFHR	≤ 0.2
RIKD	≤ 0.2
AQRS	≤ 0.2
ASPT	≤ 0.2
CLTF	≤ 0.2
PNFW	≤ 0.2
PWSY	≤ 0.2
QYCN	≤ 0.2
AADV	≤ 0.2
LRVM	≤ 0.2
HHMC	≤ 0.2
GDLS	≤ 0.2
AQFR	≤ 0.2
QKYL	≤ 0.2
NPSF	≤ 0.2
RWVV	≤ 0.2
SDDH	≤ 0.2
LNNV	≤ 0.2
QFSR	≤ 0.2
QSKF	0.29

Variant	one-hybrid fitness for binding NBS DNA
LELR	≤ 0.2
CTSM	≤ 0.2
RMIR	0.253
SEPL	≤ 0.2
YVQV	≤ 0.2
QDLL	≤ 0.2
VYGS	≤ 0.2
QTPG	≤ 0.2
NRWG	≤ 0.2
ILAL	≤ 0.2
RPTD	≤ 0.2
QKGR	0.616
KMWY	≤ 0.2
NAYL	≤ 0.2
FNRW	≤ 0.2
WAAR	≤ 0.2
MGRA	≤ 0.2
PHGR	≤ 0.2
AAES	≤ 0.2
TPQT	≤ 0.2
